# The list shows a part of the results. Interaction screen of human proteins with wild-type SARS-CoV-2 proteins by split-DHFR complementation in yeast, 1 µg/mL methotrexate. Value = fitness of the pair (three or more lineages) minus that of the viral protein without a human partner, on a scale set by negative (0) and fused positive (1) controls, mean of up to three cultures; higher = more likely to interact. Active = false discovery rate below 0.05 (one-sided t-test) in at least one culture. Nearly all pairs are not hits, and differences among them are mostly noise (correlation between cultures about 0.3); most hits were seen in one culture only. Human sequences are the Swiss-Prot entries looked up by gene name; the clone may be another isoform. NSP2 values were corrected by the authors for a growth advantage. Listed are human proteins with a hit and a random twelfth of the others.
# B1: LCN15, Q6UWW0 (protein)
# chain: MMSFLLGAILTLLWAPTAQAEVLLQPDFNAEKFSGLWYVVSMASDCRVFLGKKDHLSMSTRAIRPTEEGGLHVHMEFPGADGCNQVDAEYLKVGSEGHFRVPALGYLDVRIVDTDYSSFAVLYIYKELEGALSTMVQLYSRTQDVSPQALKSFQDFYPTLGLPKDMMVMLPQSDACNPESKEAP
# B2: UCHL5, Q9Y5K5 (protein)
# chain: MTGNAGEWCLMESDPGVFTELIKGFGCRGAQVEEIWSLEPENFEKLKPVHGLIFLFKWQPGEEPAGSVVQDSRLDTIFFAKQVINNACATQAIVSVLLNCTHQDVHLGETLSEFKEFSQSFDAAMKGLALSNSDVIRQVHNSFARQQMFEFDTKTSAKEEDAFHFVSYVPVNGRLYELDGLREGPIDLGACNQDDWISAVRPVIEKRIQKYSEGEIRFNLMAIVSDRKMIYEQKIAELQRQLAEEEPMDTDQGNSMLSAIQSEVAKNQMLIEEEVQKLKRYKIENIRRKHNYLPFIMELLKTLAEHQQLIPLVEKAKEKQNAKKAQETK
# B3: ATG5, Q9H1Y0 (protein)
# chain: MTDDKDVLRDVWFGRIPTCFTLYQDEITEREAEPYYLLLPRVSYLTLVTDKVKKHFQKVMRQEDISEIWFEYEGTPLKWHYPIGLLFDLLASSSALPWNITVHFKSFPEKDLLHCPSKDAIEAHFMSCMKEADALKHKSQVINEMQKKDHKQLWMGLQNDRFDQFWAINRKLMEYPAEENGFRYIPFRIYQTTTERPFIQKLFRPVAADGQLHTLGDLLKEVCPSAIDPEDGEKKNQVMIHGIEPMLETPLQWLSEHLSYPDNFLHISIIPQPTD
# Molecular target: SARS-CoV-2 M
# Experiment: yeast fitness gain over the viral ORF with no human partner (scaled fitness); higher = more likely to interact
# Method: (§1)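 Split mouse DHFR complementation in pooled diploid yeast: human ORFeome clones carry one fragment and viral ORFs the other; barcoded lineages compete in 1 µg/mL methotrexate and fitness is read by barcode sequencing in up to three cultures.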
row,Binder,yeast fitness gain
1,B1,inactive: -0.0131
2,B2,inactive: 0.0231
3,B3,inactive: -0.0454

# Molecular target: SARS-CoV-2 N
# Experiment: as above
# Method: as §1
row,Binder,yeast fitness gain
1,B1,inactive: 0.014
2,B2,inactive: -0.000354

# Molecular target: SARS-CoV-2 NSP10
# Experiment: as above
# Method: as §1
row,Binder,yeast fitness gain
1,B1,inactive: -0.0277
2,B2,inactive: 0.0609
3,B3,inactive: -0.0723

# Molecular target: SARS-CoV-2 NSP12
# Experiment: as above
# Method: as §1
row,Binder,yeast fitness gain
1,B1,inactive: 0.105
2,B2,inactive: -0.00166
3,B3,inactive: -0.0603

# Molecular target: SARS-CoV-2 NSP13
# Experiment: as above
# Method: as §1
row,Binder,yeast fitness gain
1,B1,inactive: -0.0354
2,B2,inactive: -0.000183
3,B3,inactive: -0.0469

# Molecular target: SARS-CoV-2 NSP2
# Experiment: as above
# Method: as §1
row,Binder,yeast fitness gain
1,B1,inactive: -0.263
2,B2,inactive: -0.0324
3,B3,inactive: -0.045

# Molecular target: SARS-CoV-2 NSP5
# Experiment: as above
# Method: as §1
row,Binder,yeast fitness gain
1,B1,inactive: 0.15
2,B2,inactive: -0.036
3,B3,inactive: -0.167

# Molecular target: SARS-CoV-2 NSP6
# Experiment: as above
# Method: as §1
row,Binder,yeast fitness gain
1,B1,inactive: -0.0201
2,B2,inactive: 0.0318
3,B3,inactive: 0.0333

# Molecular target: SARS-CoV-2 NSP7
# Experiment: as above
# Method: as §1
row,Binder,yeast fitness gain
1,B1,inactive: -0.0159
2,B2,inactive: -0.0265
3,B3,inactive: -0.127

# Molecular target: SARS-CoV-2 NSP8
# Experiment: as above
# Method: as §1
row,Binder,yeast fitness gain
1,B1,inactive: -0.188
2,B2,inactive: -0.00275
3,B3,inactive: -0.0809

# Molecular target: SARS-CoV-2 NSP9
# Experiment: as above
# Method: as §1
row,Binder,yeast fitness gain
1,B1,inactive: -0.113
2,B2,inactive: 0.0743

# Molecular target: SARS-CoV-2 ORF10
# Experiment: as above
# Method: as §1
row,Binder,yeast fitness gain
1,B1,inactive: 0.0128
2,B2,inactive: -0.188
3,B3,inactive: 0.0316

# Molecular target: SARS-CoV-2 ORF3B
# Experiment: as above
# Method: as §1
row,Binder,yeast fitness gain
1,B1,inactive: 0.0372
2,B2,inactive: -0.106
3,B3,inactive: -0.03

# Molecular target: SARS-CoV-2 ORF6
# Experiment: as above
# Method: as §1
row,Binder,yeast fitness gain
1,B1,inactive: -0.0371
2,B2,inactive: 0.0036
3,B3,inactive: -0.0646

# Molecular target: SARS-CoV-2 ORF7A
# Experiment: as above
# Method: as §1
row,Binder,yeast fitness gain
1,B1,inactive: -0.0863
2,B3,inactive: 0.00795

# Molecular target: SARS-CoV-2 ORF7B
# Experiment: as above
# Method: as §1
row,Binder,yeast fitness gain
1,B1,inactive: -0.0368
2,B2,inactive: -0.0291
3,B3,inactive: 0.144

# Molecular target: SARS-CoV-2 ORF8
# Experiment: as above
# Method: as §1
row,Binder,yeast fitness gain
1,B1,inactive: -0.0842
2,B2,inactive: 0.0148
3,B3,inactive: 0.0171

# Molecular target: SARS-CoV-2 ORF9B
# Experiment: as above
# Method: as §1
row,Binder,yeast fitness gain
1,B1,inactive: 0.00938
2,B2,inactive: -0.0517
3,B3,inactive: -0.027

# Molecular target: SARS-CoV-2 S
# Experiment: as above
# Method: as §1
row,Binder,yeast fitness gain
1,B1,inactive: -0.00869
2,B2,inactive: 0.0298
3,B3,inactive: -0.0632

# Molecular target: SARS-CoV-2 NSP15
# Experiment: as above
# Method: as §1
row,Binder,yeast fitness gain
1,B2,inactive: -0.11

# Molecular target: SARS-CoV-2 NSP16
# Experiment: as above
# Method: as §1
row,Binder,yeast fitness gain
1,B2,inactive: 0.114
2,B3,inactive: -0.0499

# Molecular target: SARS-CoV-2 NSP1
# Experiment: as above
# Method: as §1
row,Binder,yeast fitness gain
1,B3,inactive: -0.0219

# Molecular target: SARS-CoV-2 ORF3A
# Experiment: as above
# Method: as §1
row,Binder,yeast fitness gain
1,B3,inactive: -0.0326
